Assay results taken from PubChem BioAssay AID504466 (National Center for Advancing Translational Sciences (NCATS), 2011).
In all, about 330,000 compounds went through this assay and about 4,200 (1.3%) were called active. The inconclusive results got no clear call from the source; some entries with a clear call stand among them for comparison. Calls follow the shape of the dose curve; as a rule, active = well fitted activation curve with a large enough effect; inconclusive = small, poorly fitted or top-dose-only effect; inactive = no such curve, though single readings can be large or run the other way. Potencies beside an inconclusive call are fits to weak or partial responses and may not hold up.

assay: qHTS screen for small molecules that induce genotoxicity in human embryonic kidney (HEK293T) cells expressing luciferase-tagged ELG1; conditions: HEK293T ELG1-luciferase reporter, luminescence, 16 h; series mostly up to 46 µM; activity change, positive = activation: at the top concentration; also: nearly all actives have a fitted effect of over 60% in size; as to activity change, positive = activation: % of control where 0% means no effect
In short: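 HEK293T cells expressing luciferase-tagged ELG1 were treated with compound or DMSO for 16 hr at 37°C. Luciferase activity was then read after 30 min with ONE-Glo at room temperature; rising signal flags genetic stress.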
Potency is read from the fitted curve at half-maximal effect; tags tell the direction and shape of the fitted curve.

Row | SMILES | activity change, positive = activation | Potency
1 | CCOC(=O)c1ccc(NC(=O)c2cccc(C)c2[N+](=O)[O-])cc1 | inactive: 2.9% | –
2 | Brc1ccc(-c2nnc(Cc3ccccc3)o2)cc1 | – | active: 20.6 µM
3 | COc1ccc(-c2csc(NC(=S)NC(=O)c3cccs3)n2)cc1OC | inactive: -8.83% | –
4 | O=[N+]([O-])c1ccccc1N/N=C/c1ccccc1 | – | inconclusive: 2.59 µM [activator, full curve]
5 | Nc1ccccc1SCc1cn2cccnc2n1 | – | inconclusive: 14.6 µM [activator, partial curve]
6 | COc1ccc(OC)c(N=Cc2c(O)[nH]c3ccccc23)c1 | – | inconclusive: 18.4 µM [activator, single point]
7 | COc1ccccc1C(=O)NCCC(=O)Nc1nc2ccccc2[nH]1 | – | active: 23.1 µM
8 | O=c1oc2ccccc2cc1-c1cn2ccccc2n1 | – | inconclusive: 0.073 µM [activator, full curve, poor fit]
9 | Clc1ccc2c(c1)C1OCCC1C(c1ccco1)N2 (configuration not stated) | – | inconclusive: 14.6 µM [activator, single point]
10 | Cc1c(C(=S)Nc2ccccc2)cnn1-c1ccccc1 | inactive: 0.833% | –
11 | CC(=O)Nc1ccc2nc(NC(=O)c3ccco3)sc2c1 | – | inconclusive: 3.16 µM [activator, partial curve]
12 | Cc1ccc(NC(=O)c2cccc(S(=O)(=O)N3CCCC3)c2)nc1 | – | inconclusive: 20.6 µM [activator, single point]
13 | Cc1cc2nc(-c3ccc(SCC(=O)Nc4nccs4)nc3)[nH]c2cc1C | – | inconclusive: 10.3 µM [activator, partial curve]
14 | CS(=O)(=O)Nc1cccc(C2=NN(C(=O)c3ccc(F)cc3)C(c3cccs3)C2)c1 (configuration not stated) | inactive: -9.28% | –
15 | COc1ccc2nc(SCC(C)=O)c(C#N)cc2c1 | – | active: 2.06 µM
16 | CCOC(=O)c1ccc2nc(C)c3c(c2c1)OC(C)C3 (configuration not stated) | inactive: 9.72% | –
17 | COc1ccccc1-n1c(=S)[nH]c2c(sc(=S)n2-c2ccccc2)c1=O | inactive: -0.418% | –
18 | C=CCn1c(C)cc(C2=NNC(=NCc3ccccc3)SC2)c1C | – | inconclusive: 23.1 µM [activator, partial curve, poor fit]
19 | CN1CCN(C2CC(=O)N(c3ccc4c(c3)OCCO4)C2=O)CC1 (configuration not stated) | – | inconclusive: 5.8 µM [activator, single point]
20 | Cc1ccc(N2C(S)=C(C#N)C(=O)NC2c2cccs2)cc1 (configuration not stated) | inactive: -1.22% | –
21 | Cc1ccc(C(=O)NCCC(=O)N2CCOCC2)cc1 | – | active: 13 µM
22 | Cn1nc(-c2ccccc2)c(N2CCCCC2)cc1=O | – | inconclusive: 14.6 µM [activator, partial curve, poor fit]
